# Reference: the supplement of paper PMC3334620
# Over roughly 33,000 sequences, “E-score (-0.5 to 0.5)” has its median near -0.053; the highest 2% begin near 0.37. The list shows a part of the results.
# Molecular target: Hap1 (UniProt P0CE41)
# Assay: PBM E-score (8-mer binding enrichment) (E-score (-0.5 to 0.5)); higher = stronger / more preferred TF binding; most listed sequences are background and not binding sites
# Conditions: protein concentration: 200 nM; construct: GST-DNA-binding domain
# In short: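 Detection of bound protein used fluorescent anti-GST, with scans normalised by masliner. The proteins were GST-tagged yeast transcription factors applied at about 100-200 nM to universal all-10-mer Agilent arrays made double-stranded by primer extension. Each ungapped eight-base word, pooled with its reverse complement, was scored with an E-score from the Universal PBM Analysis Suite.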
# Sequence of UniProt P0CE41 (P0CE41 whole entry): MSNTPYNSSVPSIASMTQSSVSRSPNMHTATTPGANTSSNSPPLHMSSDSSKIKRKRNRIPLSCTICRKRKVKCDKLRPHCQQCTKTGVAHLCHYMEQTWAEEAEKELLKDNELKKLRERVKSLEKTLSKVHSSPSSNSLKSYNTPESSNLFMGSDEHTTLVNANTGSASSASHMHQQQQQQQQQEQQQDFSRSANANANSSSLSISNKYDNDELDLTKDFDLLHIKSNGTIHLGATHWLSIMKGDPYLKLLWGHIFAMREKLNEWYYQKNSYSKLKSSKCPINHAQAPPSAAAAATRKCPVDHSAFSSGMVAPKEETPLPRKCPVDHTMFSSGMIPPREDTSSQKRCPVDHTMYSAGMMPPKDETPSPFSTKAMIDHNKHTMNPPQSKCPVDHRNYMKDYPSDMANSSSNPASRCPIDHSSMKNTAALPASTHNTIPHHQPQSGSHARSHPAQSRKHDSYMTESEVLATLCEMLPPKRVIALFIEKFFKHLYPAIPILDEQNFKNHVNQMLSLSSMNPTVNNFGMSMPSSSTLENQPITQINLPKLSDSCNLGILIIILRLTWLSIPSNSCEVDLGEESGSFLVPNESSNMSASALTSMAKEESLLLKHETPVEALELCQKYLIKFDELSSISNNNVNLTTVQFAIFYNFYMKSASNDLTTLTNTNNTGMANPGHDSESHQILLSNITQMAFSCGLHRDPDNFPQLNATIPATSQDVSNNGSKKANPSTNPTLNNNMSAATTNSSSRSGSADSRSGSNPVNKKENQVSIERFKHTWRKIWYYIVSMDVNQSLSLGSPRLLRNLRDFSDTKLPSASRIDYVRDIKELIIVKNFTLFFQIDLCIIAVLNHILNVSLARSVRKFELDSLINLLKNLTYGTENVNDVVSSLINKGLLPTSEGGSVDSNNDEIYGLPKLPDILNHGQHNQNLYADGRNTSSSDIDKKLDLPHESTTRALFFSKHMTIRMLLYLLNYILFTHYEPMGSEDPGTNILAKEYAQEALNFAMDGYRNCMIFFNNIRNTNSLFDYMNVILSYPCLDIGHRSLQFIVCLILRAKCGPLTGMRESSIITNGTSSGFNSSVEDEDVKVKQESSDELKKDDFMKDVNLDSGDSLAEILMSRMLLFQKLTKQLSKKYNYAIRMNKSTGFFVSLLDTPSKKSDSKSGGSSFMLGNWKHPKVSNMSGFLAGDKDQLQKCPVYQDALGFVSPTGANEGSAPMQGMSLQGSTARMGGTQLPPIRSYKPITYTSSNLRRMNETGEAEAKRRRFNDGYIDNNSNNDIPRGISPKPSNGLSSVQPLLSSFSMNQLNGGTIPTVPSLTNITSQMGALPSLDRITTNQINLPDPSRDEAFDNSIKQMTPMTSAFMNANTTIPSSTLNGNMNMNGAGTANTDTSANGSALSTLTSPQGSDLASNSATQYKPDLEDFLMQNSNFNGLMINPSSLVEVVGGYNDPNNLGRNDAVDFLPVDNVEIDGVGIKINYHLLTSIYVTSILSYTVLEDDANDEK
row,Sequence,PBM E-score
1,GATGAGCA,-0.0729
2,AATAGAAA,-0.0943
3,CACAAAGC,-0.179
4,ACAAGCAG,-0.073
5,CACTTGCG,-0.26
6,ATGTGCGC,-0.02
7,CAGTGGAG,-0.0671
8,CGGCTTCA,0.135
9,AGGCGTAG,-0.153
10,CGCTCGGC,0.344
11,CCCGACCA,0.171
12,CCCCGCAA,0.258
13,CCACCTTC,-0.194
14,GGTTCGAA,0.00151
15,CAGTGAGG,-0.273
16,CCTCTCAA,0.0202
17,AGTCCCAT,-0.151
18,TCTGTCCA,0.00731
19,CAGGAGTA,-0.176
20,AGAGTTTC,-0.0568
21,GAACCCTA,-0.0445
22,CGGATTTC,0.426
23,TCAGGGGA,-0.193
24,AAATCTCG,0.232
25,CACACTTC,-0.106

row,Sequence,PBM E-score
1,CATTGCCG,0.173
2,AGTAGACA,-0.103
3,CCCGTCAA,0.0595
4,AGGTACGA,-0.169
5,GAAGCCAC,0.0224
6,GAAGCAGA,-0.265
7,AAACAGCT,-0.0134
8,GATGAATA,0.0177
9,AACCTAAA,-0.0221
10,AGATGATA,-0.066
11,GTGTCGAA,-0.256
12,AACAAAGG,0.0332
13,CCGACTTA,0.242
14,CCACCACA,-0.0536
15,AGAGTCAG,-0.0127
16,ATTGTGTA,-0.115
17,AGCAGGAG,-0.0101
18,AGTGGGTG,0.0112
19,AACCCTGG,-0.241
20,CCTTGACA,-0.275
21,CTTTTTGA,-0.167
22,ACATATCT,0.0923
23,ACTTAGCC,-0.107
24,AATGTGTG,0.00167
25,CGCTGTTA,0.273

row,Sequence,PBM E-score
1,CCCTTACA,-0.191
2,CCGAGTGC,0.272
3,AATCCTGA,-0.161
4,CATGTTCA,-0.207
5,ATTAGTAA,0.0833
6,GAGCCCTA,-0.123
7,ATCGTTCG,0.113
8,CACGAATC,0.0946
9,CGTATACA,-0.168
10,CATCCATC,0.018
11,GCGTCGAC,0.00401
12,GTTCTTGA,-0.308
13,CTACATTC,-0.0459
14,GGAAAACC,0.14
15,GCCCGTCA,0.125
16,ATTGGGAA,-0.133
17,CTATTCCC,0.16
18,TGCTTTAA,-0.055
19,GACGTTCA,-0.15
20,GCGGCCCA,0.147
21,AACGACTC,-0.207
22,CAGCGCGC,0.057
23,ACCGGCAG,0.187
24,CTGGAAAC,-0.175
25,GCTACACA,-0.328

row,Sequence,PBM E-score
1,CATGAGTC,-0.145
2,TAGAGCCA,-0.232
3,AATGAATC,-0.142
4,CACTTCTG,-0.262
5,CATTTTTA,-0.0317
6,CACTAATC,0.155
7,AGCTGCTA,-0.265
8,GCTACGAC,0.103
9,TATCCGCA,0.253
10,GAGAATCA,-0.0525
11,ATTCCAGA,0.0508
12,CATGGGGA,0.055
13,GATGTCAA,-0.119
14,CATGCTCC,-0.0921
15,AGTGCGGG,0.139
16,CTTTTGAC,-0.126
17,AGAACAGA,0.00492
18,TGGAAAAA,-0.126
19,CGACCAAG,-0.154
20,AGTACTAG,-0.161
21,CTCTTCAG,-0.242
22,GCCGTTTA,0.136
23,CCTACGGA,0.232
24,CGTTTGTA,-0.122
25,GAAGTGGC,-0.0295

row,Sequence,PBM E-score
1,ATGTTCAC,-0.12
2,AGGCGCTG,0.0376
3,CCGACATC,0.278
4,AGACCTCC,-0.0226
5,ACGTACGC,-0.0901
6,GTAAGTTA,0.022
7,ATCTGGTA,-0.145
8,CAAGCATC,-0.038
9,ACAAGGAC,-0.33
10,CGTTATTA,0.267
11,CTCGTCTC,-0.0915
12,AGGGAATA,0.127
13,TATATATA,0.221
14,ATGCATGG,-0.0424
15,AATGGGAC,-0.0886
16,CACGATCG,-0.00398
17,GTGAGCAC,-0.232
18,CAGGTGCA,-0.0951
19,CAACATAA,-0.0444
20,CAAATCGG,0.3
21,CACGCTCG,-0.0319
22,CTTTGTTA,-0.09
23,AGCGCCCC,-0.0264
24,ACCCGTCA,0.155
25,AGTGCAAA,-0.197

row,Sequence,PBM E-score
1,ATTATGAC,0.0596
2,CGGGACCC,0.153
3,CTTGAGGA,-0.0799
4,CAGCTAGG,-0.235
5,CACGTCTG,-0.107
6,ACGTCACA,-0.23
7,CGATATAG,0.21
8,CGGTGAAC,0.0875
9,GGGCGACC,0.0377
10,GCGGAACA,0.22
11,AAATACAC,-0.135
12,CAACTGCA,-0.318
13,CCTCAGGC,-0.0905
14,ACCCTTAC,-0.104
15,CGATAAAA,0.382
16,CTTTCAAC,-0.15
17,AACCTTGC,-0.119
18,GTCGTCCA,0.0593
19,ACATATGA,-0.146
20,CGGACTCC,0.306
21,AGGGTTAG,-0.155
22,AAGACCGG,0.333
23,AGGTCATA,-0.13
24,GGACTAAC,0.239
25,CAGTCGAG,-0.184

row,Sequence,PBM E-score
1,ACATAAAT,-0.0976
2,AAAGAATG,-0.0307
3,GACCTGGA,-0.021
4,AACCTCCT,-0.237
5,GCCCCACC,0.0115
6,CAATCCGA,0.241
7,AGTGGCCC,0.182
8,AGCCTAAC,-0.0527
9,AGAAGATC,0.0834
10,CCCCGGGA,0.348
11,ACTACCCA,-0.204
12,CCTGCGGC,0.059
13,AAACCACC,0.023
14,CCGAGCTC,0.266
15,AGCAACAT,-0.111
16,CCAGTGCA,-0.32
17,TTACAAAA,-0.0538
18,ATAATCAC,-0.0425
19,GGCCCAGA,0.0578
20,AAGCCGAT,0.399
21,CCGTGCTC,0.144
22,CCTCGTCC,0.0893
